Source: paper PMC4336329 (PLoS ONE, 2015)
The whole screen tested about 310,000 compounds, of which about 14,000 (4.5%) showed an effect of 50% or more. Effects have a minus sign here. The list shows a part of the results.

Biological target: human ether-à-go-go-related gene (hERG) potassium channel (human, UniProt Q12809)
Assay: primary screen, population patch clamp on CHO cells stably expressing hERG
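Further: peak tail current of the secondary pulse compared with the same well before compound.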

Sequence of human ether-à-go-go-related gene (hERG) potassium channel (Q12809 whole entry, looked up): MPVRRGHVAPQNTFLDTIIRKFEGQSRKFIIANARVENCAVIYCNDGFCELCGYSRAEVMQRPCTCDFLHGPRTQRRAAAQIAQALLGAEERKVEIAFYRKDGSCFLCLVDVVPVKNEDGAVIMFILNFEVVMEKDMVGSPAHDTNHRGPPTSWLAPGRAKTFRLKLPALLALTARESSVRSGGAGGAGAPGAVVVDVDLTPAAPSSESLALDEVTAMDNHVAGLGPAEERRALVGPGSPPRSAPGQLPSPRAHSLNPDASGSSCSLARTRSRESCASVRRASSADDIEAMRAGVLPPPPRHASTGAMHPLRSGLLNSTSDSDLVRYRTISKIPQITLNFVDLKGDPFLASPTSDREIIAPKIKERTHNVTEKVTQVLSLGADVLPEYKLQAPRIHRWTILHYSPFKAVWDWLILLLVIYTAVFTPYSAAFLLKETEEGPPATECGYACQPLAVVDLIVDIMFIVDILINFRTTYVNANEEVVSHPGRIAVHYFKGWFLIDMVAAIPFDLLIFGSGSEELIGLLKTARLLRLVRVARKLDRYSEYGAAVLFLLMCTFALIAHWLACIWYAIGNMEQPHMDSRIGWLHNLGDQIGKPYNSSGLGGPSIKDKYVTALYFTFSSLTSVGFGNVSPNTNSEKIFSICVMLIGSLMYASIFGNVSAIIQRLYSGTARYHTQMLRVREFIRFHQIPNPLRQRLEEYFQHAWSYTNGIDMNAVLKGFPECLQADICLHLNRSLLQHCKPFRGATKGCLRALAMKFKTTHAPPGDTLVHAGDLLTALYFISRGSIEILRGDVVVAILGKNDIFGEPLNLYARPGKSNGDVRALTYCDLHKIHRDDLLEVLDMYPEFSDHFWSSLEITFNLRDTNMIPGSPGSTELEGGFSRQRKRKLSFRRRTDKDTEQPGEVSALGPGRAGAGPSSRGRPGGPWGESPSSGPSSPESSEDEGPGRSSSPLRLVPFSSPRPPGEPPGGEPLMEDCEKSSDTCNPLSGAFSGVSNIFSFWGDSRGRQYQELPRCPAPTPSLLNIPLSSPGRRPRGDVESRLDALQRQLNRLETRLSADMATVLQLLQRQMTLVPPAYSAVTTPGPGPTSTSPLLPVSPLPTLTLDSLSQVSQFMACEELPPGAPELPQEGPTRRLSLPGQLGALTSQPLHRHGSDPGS

SMILES	hERG current change (%, negative = inhibition) at 10uM [%]
Cn1nc(-c2ccc(Cl)cc2)c2cc(C(=O)N3CCOCC3)sc21	-44.8
COc1ccccc1C(=O)NCC(=O)OCC(=O)N(CC(C)C)c1c(N)n(Cc2ccccc2)c(=O)[nH]c1=O	-1.93
Cc1cc(C(=O)Nc2nnc(C3CC3)s2)c(C)s1	23.7
O=C1NC2(CCCCC2)C(=O)N1CCS(=O)(=O)Oc1ccccc1	2.81
COc1cc(OC)cc(/C(N)=N/O)c1	8.06
CC(Oc1ccc(F)cc1)c1ccnc2nc(/N=C/N(C)C)nn12 (stereo not drawn)	-2.84
Cc1ccnc(SCC(=O)N2CCC(C(N)=O)CC2)n1	-8.43
CCc1nn2c(NCCCO)cc(C)nc2c1-c1ccc(F)cc1	-19.7
CCCSC1=C(C#N)C(c2ccccc2OCC)CC(=O)N1 (stereo not drawn)	1.88
O=C(CCNS(=O)(=O)c1ccc2[nH]c(=O)oc2c1)NCc1ccccc1	10.6
COc1ccc(NC(=O)C(NC(=O)Cc2cccs2)c2ccc(C)cc2)cc1 (stereo not drawn)	5.92
Cc1ccc(S(=O)(=O)N2CCC(C(=O)N[C@@H](C)C(=O)NCc3ccccc3)CC2)cc1	2.37
CC(C)c1cccc(C(C)C)c1NC(=O)CN1CCCC1	23.8
COc1ccc(-c2sc3ccc(N4CCOCC4)cc3c2-c2ccc(O)cc2)cc1	9.46
COc1cc(C(C(=O)NC2CCCC2)N(C(=O)c2snc(C(N)=O)c2N)c2ccccc2)cc(OC)c1OC (stereo not drawn)	-32.4
CCCCn1cnc2c(cnn2-c2ccc(F)cc2)c1=O	-28
CN(C(=O)OCc1ccccc1)C(CC(N)=O)C(=O)O (stereo not drawn)	2.49
CCOC(=O)NC(NCCc1ccccc1)(C(F)(F)F)C(F)(F)F	13.8
COCCCn1c(=O)/c(=C\c2ccc(OC(F)F)c(OC)c2)s/c1=C(/C#N)C(N)=O	-17.6
COc1ccccc1N1C(=O)C2CC=CC(C)C2C1=O (stereo not drawn)	10.5
COc1ccc(N2C(=O)CCC(C(=O)NCc3cccnc3)C2c2ccc(OC)c(OC)c2)cc1 (stereo not drawn)	5.56
CN(CCn1ccnc1)Cc1cn(-c2ccccc2)nc1-c1ccc2c(c1)OCO2	-62.9
CCC(CC)COC(=O)C(C#N)c1nc2ccccc2nc1N1CCOCC1 (stereo not drawn)	-7.91
COc1ccc(-c2oc3ccccc3c2C(=O)OCc2ccccc2OC)cc1	-4.02
COc1ccc(OCc2cc(/C=N\NC(=O)c3ccccc3)ccc2OC)cc1	-16.9
O=C(Nc1ccccc1)Nc1cccc(Cl)c1	24.8
Cc1occc1C(=O)Nc1cccc([N+](=O)[O-])c1	-16.9

SMILES	hERG current change (%, negative = inhibition) at 10uM [%]
Cc1cc(C(=O)NN)c2cc(Br)ccc2n1	6.66
O=C(NC1CC1)C1=C[C@H](c2ccc(Br)cc2)C[C@H](OCc2ccc(CO)cc2)O1	-71.1
COc1ccc(N2CCN(C3CC(=O)N(Cc4ccc(N5CCCC5=O)cc4)C3=O)CC2)cc1 (stereo not drawn)	-3.75
O=C(O)Cn1cnc2sc3c(c2c1=O)CCCC3	16.1
O=C(NC1CCCCC1)c1cccc(S(=O)(=O)N2CCCCC2)c1	6.94
Cc1cc(Cl)c2c(c1)[C@]1(C(=O)N2)[C@@H]2C(=O)N(Cc3ccccc3)C(=O)[C@@H]2[C@@H]2CCCN21	1.31
COc1ccc(C2C(C(=O)OCC(=O)Nc3ccc(C)cc3)CCC(=O)N2c2ccc(OC)cc2)cc1 (stereo not drawn)	-62.4
Cc1cnnc2ccc3c(no[n+]3[O-])c12	6.47
CCOC(=O)CSc1ccc(S(=O)(=O)N2CCCC2)cc1[N+](=O)[O-]	13.6
O=C(NC1CCCC1)C1CCN(C(=O)c2ccccc2Cl)CC1	21
COc1ccc(CNC2CCSc3ccccc32)cc1OC.O=C(O)C(=O)O (stereo not drawn)	9.97
CN(C)C(=O)Nc1cnc2ccccc2c1	4.29
Cc1cccc2cc(CN(Cc3cccnc3)C(=O)c3cccs3)c3nnnn3c12	26.1
CC(C)CNC(=O)COC(=O)CNC(=O)c1cc(Cl)cc([N+](=O)[O-])c1	-8.91
CC(NC(=O)CN1CCN(c2ccccc2F)CC1)c1ccccc1 (stereo not drawn)	-0.99
COc1ccc(CNC(=O)C2CCN(C(=O)[C@@H]3Cc4ccccc4CN3)CC2)cc1	-24.8
CC(C)(C)N(C(=O)Cn1nnc(-c2ccc(F)cc2)n1)C(C(=O)NC1CCCC1)c1ccncc1.Cl (stereo not drawn)	4.92
Cc1c(NC(=O)CSc2nnc(C(C)Oc3ccc(Cl)cc3)n2-c2ccccc2)c(=O)n(-c2ccccc2)n1C (stereo not drawn)	-7.78
CCOc1ccccc1-c1cc(-c2n[nH]c(=S)n2CC)c2ccccc2n1	1.4
COC(=O)[C@@H](Cc1ccccc1)NC(=O)NCCc1ccc(OC)c(OC)c1	15.7
COc1cc(C2C3C(=O)N(c4ccc(F)cc4)C(=O)C3ON2c2ccccc2)ccc1O (stereo not drawn)	-0.249
CCC12CC3CC(C1)CC(C(=O)Nc1nn[nH]n1)(C3)C2	-19.9
CCOc1ccc(NC(=O)CN(C)C(=O)Cc2n[nH]c(=O)c3ccccc23)cc1OCC	-9.6
CCC(=O)Nc1ccc(S(=O)(=O)c2ccc(NC(=O)CC)cc2)cc1	0.428
COc1ccc(S(=O)(=O)N2CCN(CC(O)COc3ccc(C#N)cc3)CC2)cc1OC (stereo not drawn)	-46.9
Cl.OC(CN1CCCCC1)CN(c1ccccc1)c1ccccc1 (stereo not drawn)	-63.2
O=c1c2cc3c(cc2[nH]c(=S)n1C1CCN(Cc2ccccc2)CC1)OCO3	-42.3
